Source: publication PMC12040169 (PLOS Biology, 2025)
Like-named read-outs stand apart in the source and are kept apart here. This is one part of the list.

System: T1, C. trachomatis L2/434/Bu expressing GFP (CTL2-GFP)
T1 construct: L2/434/Bu GFP intracellular growth in HeLa cells
Set-up: species or system HeLa; C. trachomatis total inclusion area by high-content imaging, normalised to DMSO
How it was run: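 Imaging read-out: GFP inclusions and Hoechst nuclei captured by high-content imaging after fixation. Inclusion area/number = chlamydial growth; nuclei count = host cell viability. MIC calculated per earlier method.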

[1] = total inclusion area; 28.5 h, 10 µM; inhibitor

In the case of `COC(=O)CNC(=O)c1ccc(S(=O)(=O)N2CCCC2)cc1` [CBK264880], the “% of control remaining” value [1] was 113.425.
`CCCc1nnc([C@H]2CCN(Cc3ccc(S(C)(=O)=O)cc3)C2)o1` [CBK289402] was tested, and the “% of control remaining” value [1] was 93.2974.
For `Nc1ncc(-c2cccc3ccccc23)nc1NC1CCCCC1` [CBK063588], the “% of control remaining” value [1] was 91.1914.
With `CC1=CC(C)C(C(=O)O)C(C(=O)N2CCN(C)CC2)C1` (centres unmarked) [CBK027311] the “% of control remaining” value (total inclusion area, 28.5 h, 10 µM, inhibitor) was 83.0906.
With `COc1cc(C)ccc1S(=O)(=O)n1cnc2cc(C)c(C)cc21` [CBK287580] the “% of control remaining” value [1] was 74.2494.
With `O=C(Nc1cccnc1)c1ncoc1-c1ccc(F)cc1` [CBK104357] the “% of control remaining” value [1] was 95.9877.
`CCN(CC)CCNC(=O)N(CC)Cc1ccncc1` [CBK155151] was tested, and the “% of control remaining” value [1] was 95.9709.
In the case of `Cn1cc(C2CCCCCN2C(=O)c2ccc(F)cc2)cn1` (centres unmarked) [CBK284913], the “% of control remaining” value [1] was 109.372.
For `CCC(CNC(=O)c1coc(COc2ccc3sc(C)nc3c2)n1)OC` (centres unmarked) [CBK307248], the “% of control remaining” value [1] was 66.1227.
In the case of `COc1ccc(-c2ccc(CCC(=O)O)n2Cc2ccco2)cc1` [CBK265945], the “% of control remaining” value [1] was 71.3326.
In the case of `CC1(C)C[C@H](NC(=O)C2CC2)[C@@]2(CCC(=O)N3CCCC3)CC[C@](C)(O)C[C@@H]12` [CBK289044], the “% of control remaining” value [1] was 107.864.
In the case of `Cc1nnc2sc(-c3ccncc3)nn12` [CBK269553], the “% of control remaining” value [1] was 88.0437.
For `Cc1cc(C)n(CCCC(=O)NCCc2cn3ccccc3n2)n1` [CBK304414], the “% of control remaining” value [1] was 93.8685.
With `Cc1nc(C2CC(O)C2)cc(N2CCC(C(=O)N3CCOCC3)CC2)n1` (centres unmarked) [CBK307675] the “% of control remaining” value [1] was 19.8786.
For `O=C(NCCOc1ccccc1)N1CCN(c2ccc(F)cc2)CC1` [CBK156416], the “% of control remaining” value [1] was 102.072.
With `COC(=O)c1cc(S(N)(=O)=O)c(C)o1` [CBK113185] the “% of control remaining” value [1] was 95.3842.
For `CCOC(=O)c1c(NC(=O)CSc2nc[nH]n2)sc2c1CCCCC2` [CBK267231], the “% of control remaining” value [1] was 92.4981.
With `CN(C)S(=O)(=O)N(CC(=O)N1CCN(Cc2ccc3c(c2)OCO3)CC1)c1ccccc1` [CBK267994] the “% of control remaining” value [1] was 65.0959.
In the case of `O=C(NCCN1CCOCC1)c1cc(-c2ccccc2)on1` [CBK267479], the “% of control remaining” value [1] was 104.646.
`[2H]C(C(=O)NCc1ccc2c(c1)CCC2)n1cc(-c2ccc(CN3CCC(C)CC3)cc2)nn1` (centres unmarked) [CBK166081-L1] was tested, and the “% of control remaining” value [1] was 51.4357.
In the case of `O=C(C1CCOCC1)N1CCCC(c2cc3cccnc3[nH]2)C1` (centres unmarked) [CBK284941], the “% of control remaining” value [1] was 87.662.
In the case of `O=C(c1cccnc1)C1CCN(C(=O)Cc2ccsc2)CC1` [CBK283517], the “% of control remaining” value [1] was 76.4059.
`Cc1cccc(C(=O)N2CCC(N(C)Cc3ccc(-c4ccc(S(C)(=O)=O)cc4)nc3)CC2)n1` [CBK165937T] was tested, and the “% of control remaining” value [1] was 77.0706.
